# Out of some 310,000 compounds screened, about 14,000 (4.5%) showed an effect of 50% or more. The effect is printed as a negative number. Some of the results follow.
# Target: human ether-à-go-go-related gene (hERG) potassium channel (human, UniProt Q12809)
# Assay: primary screen, population patch clamp on CHO cells stably expressing hERG
# 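Note: peak tail current of the secondary pulse compared with the same well before compound.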
# Chain of human ether-à-go-go-related gene (hERG) potassium channel (Q12809 whole entry, looked up): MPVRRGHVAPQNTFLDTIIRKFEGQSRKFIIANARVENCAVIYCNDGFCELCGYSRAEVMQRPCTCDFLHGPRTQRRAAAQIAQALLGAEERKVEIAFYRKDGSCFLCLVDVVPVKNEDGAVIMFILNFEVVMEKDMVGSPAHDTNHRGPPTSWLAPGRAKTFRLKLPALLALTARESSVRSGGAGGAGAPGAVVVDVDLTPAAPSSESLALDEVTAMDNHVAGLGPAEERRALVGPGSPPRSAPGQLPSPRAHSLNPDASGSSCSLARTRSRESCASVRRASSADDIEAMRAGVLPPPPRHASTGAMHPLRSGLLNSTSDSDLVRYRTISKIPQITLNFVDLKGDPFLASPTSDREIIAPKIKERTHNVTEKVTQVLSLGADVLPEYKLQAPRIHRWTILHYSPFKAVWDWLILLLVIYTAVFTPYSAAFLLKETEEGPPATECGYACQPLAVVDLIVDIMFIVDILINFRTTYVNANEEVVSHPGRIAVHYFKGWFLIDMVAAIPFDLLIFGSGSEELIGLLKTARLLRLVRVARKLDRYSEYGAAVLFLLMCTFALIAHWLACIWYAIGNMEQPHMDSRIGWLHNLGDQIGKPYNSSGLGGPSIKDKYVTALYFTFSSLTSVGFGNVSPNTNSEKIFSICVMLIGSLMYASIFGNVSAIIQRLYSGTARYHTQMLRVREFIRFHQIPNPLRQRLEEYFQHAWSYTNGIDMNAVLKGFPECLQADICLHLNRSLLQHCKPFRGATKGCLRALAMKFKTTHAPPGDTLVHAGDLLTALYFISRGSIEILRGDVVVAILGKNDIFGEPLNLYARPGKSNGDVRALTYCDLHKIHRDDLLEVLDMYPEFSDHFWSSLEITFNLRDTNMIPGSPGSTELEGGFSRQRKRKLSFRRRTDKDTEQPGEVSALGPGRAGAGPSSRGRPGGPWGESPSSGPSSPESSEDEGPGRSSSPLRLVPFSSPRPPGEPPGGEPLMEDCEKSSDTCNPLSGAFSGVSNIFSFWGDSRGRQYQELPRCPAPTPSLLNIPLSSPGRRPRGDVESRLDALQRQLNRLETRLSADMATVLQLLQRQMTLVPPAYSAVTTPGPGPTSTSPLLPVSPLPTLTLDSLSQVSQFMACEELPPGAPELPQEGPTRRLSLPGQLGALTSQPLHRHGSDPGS
row,Compound,"hERG current change (%, negative = inhibition) at 10uM"
1,O=C(COC(=O)CNS(=O)(=O)c1c(Cl)cccc1Cl)Nc1ccccc1Sc1ccccc1,9.31%
2,Cc1noc(C)c1COC(=O)Cc1ccc(Cl)c(Cl)c1,-3.02%
3,CCOC(=O)c1[nH]c(C)c(C(=O)Nc2cc(Cl)ccc2C)c1C,10.4%
4,COc1cccc(C(=O)NNC(=O)c2ccccc2)c1,8.52%
5,CCC(NC(=O)OC(C)(C)C)C(=O)Oc1cc(C)cc2oc(=O)c3c(c12)CCC3 (stereo not shown),0.344%
6,COc1ccc(Cl)cc1S(=O)(=O)Nc1cccc(C(=O)O)c1,-4.31%
7,Cc1nn(CC(=O)N2CCN(S(=O)(=O)c3ccccc3)CC2)c(C)c1[N+](=O)[O-],-10%
8,Cl.N=c1c2c(n(Cc3ccc(Cl)cc3)c3c1CCC3)CCC2,-2.06%
9,Cc1ccc2nnnc(-c3ccccc3)c2c1,6.84%
10,Cn1c(CNC(=O)c2ccco2)nnc1SCC(=O)N1CCN(c2ccccc2)CC1,7.26%
11,Cc1cc(C)n(S(=O)(=O)c2cccc(Cl)c2Cl)n1,-2.07%
12,Cc1cc(C(=O)CSc2nnc(NCc3ccccc3)s2)c(C)n1C,-9.15%
13,COCCNC(=O)Cn1cc(/C=C2\C(=O)NC(=O)N(c3ccccc3F)C2=O)c2ccccc21,17%
14,COc1ccc(CCNC(=O)C(=O)Nc2ccc3c(c2)OCCO3)cc1OC,14.8%
15,CCN1CCN(C(=O)/C(=C/c2cccs2)NC(=O)c2ccc(C)c(C)c2)CC1,-75.6%
16,CC(C)c1c(O)nc(SCc2ccc(F)cc2)[nH]c1=O,20.4%
17,CCN(Cc1ccccc1)S(=O)(=O)c1cc(C(=O)c2c(N)n(C)c(=O)n(C)c2=O)ccc1OC,-15.2%
18,COc1cccc(CNC(=O)CCCc2c[nH]c3ccccc23)c1,-12.3%
19,CCc1nnc(NC(=O)c2ccc(Br)c(S(=O)(=O)N3CCOCC3)c2)s1,21.1%
20,O=C(O)CCC(=O)N1CCc2cc(S(=O)(=O)N3CCC(Cc4ccccc4)CC3)ccc21,6.5%
21,COc1ccc(Cn2c(CCC(=O)Nc3ccc(CC#N)cc3)nc3cccnc32)cc1,-10.6%
22,Cc1ccc(NC2=C(Cl)C(=O)OC2OC(=O)c2ccc(C)cc2)cc1 (stereo not shown),-51.7%

row,Compound,"hERG current change (%, negative = inhibition) at 10uM"
1,CCCCC(=O)Nc1ccc(NC(=O)c2ccccc2[N+](=O)[O-])cc1OC,-14%
2,N/C(CC(=O)Nc1ccc(F)c(Cl)c1)=N\OC(=O)c1cccs1,16.4%
3,Cc1cccc(NCC(=O)N/N=C\c2c[nH]c3ccccc23)c1,-9.16%
4,O=C(NC(=O)c1ccc(F)cc1F)Nc1ccc(Cl)cc1,3.56%
5,CCc1c(C2(O)CCCCC2)[nH]c2ccc(C(=O)OC)cc12,15.3%
6,COc1ccc(CCNC(=O)C2CCCN(S(=O)(=O)c3ccc(F)cc3)C2)cc1OC (stereo not shown),-5.02%
7,COC(=O)C(C)NC(=S)N1CC2C[C@@H](C1)Cn1c2cccc1=O (stereo partly shown),16.9%
8,COCCCNC(=O)CN(c1ccc(OC)cc1)S(=O)(=O)c1ccc(NC(C)=O)cc1,12.9%
9,Cn1c2c(c(=O)c3ccccc31)CCCC2,-4.88%
10,CNC(=O)c1sc(-c2cccnc2)nc1C,-34.7%
11,O=C(Nc1ccc2c(c1)C(=O)NC2=O)c1ccc(Cl)s1,10.5%
12,O=C1CCC(C(=O)Nc2ccc(Cl)cc2)N1 (stereo not shown),28%
13,CC(=O)N/C(=C\c1ccccc1)C(=O)OCC(=O)NC(=O)c1ccccc1,-6.77%
14,CCc1cccc(C)c1NC(=O)C1CC(=O)N(C2CCCC2)C1 (stereo not shown),3.52%
15,O=S1(=O)CC(O)C(NCCO)C1 (stereo not shown),5.25%
16,CCOc1ccc(Nc2nc(Cc3nnc(SCC(N)=O)o3)cs2)cc1,-5.72%
17,CCCN1CCC(NC(=O)Cc2ccc(C)cc2)CC1,4.74%
18,CCCCc1cc(C(=O)Cc2ccccn2)c(O)cc1O,16.9%
19,COc1ccc(C(=O)/C(C#N)=N/Nc2ccc([N+](=O)[O-])cc2)cc1,7.78%
20,CCN1C(=O)C2(SC(NC(C)=O)=NN2C(C)=O)c2cc(C)ccc21 (stereo not shown),-9.19%
21,COc1cc([N+](=O)[O-])ccc1NC(=O)NCc1ccccn1,11.7%
22,COc1cccc(C2C(C(=O)OC(C)C)=C(C)N=c3s/c(=C\c4ccc(C(=O)O)cc4)c(=O)n32)c1 (stereo not shown),-9.76%

row,Compound,"hERG current change (%, negative = inhibition) at 10uM"
1,Cc1ccc2cc3c(NC(=O)C(C)C)nn(C)c3nc2c1,-5.72%
2,COc1cc(C2/C(=C(\O)c3ccc4c(c3)CC(C)O4)C(=O)C(=O)N2CCCn2ccnc2)cc(OC)c1OC (stereo not shown),-18.9%
3,Cc1ccc(C)c(OC(=O)c2cccnc2Cl)c1C,-8.07%
4,N#Cc1ccc(N2CCN(C(=O)c3cccs3)CC2)c(F)c1,-55.7%
5,CCCc1cc(=O)oc2cc(C)cc(OC(C)C(=O)NCc3cccnc3)c12 (stereo not shown),-47.3%
6,O=C(N[C@@H](Cc1ccccc1)C(=O)N1CCC2(CC1)NCCc1[nH]cnc12)c1cccc(F)c1,18.6%
7,COc1ccc(CNC(=O)C(C)n2nc(C)c3c(C)n(-c4ccc(C)cc4)nc3c2=O)cc1 (stereo not shown),-50.1%
8,CC(C)c1ccccc1NC(=O)CSc1n[nH]c(=O)n1C1CC1,8.91%
9,NC(N)=Nc1ccc2[nH]c3c(c2c1)C[C@@]1(O)[C@H]2Cc4ccc(O)c5c4[C@@]1(CCN2CC1CC1)[C@H]3O5.O=C(O)C(F)(F)F,6.85%
10,O=C(c1ccc2c3c(cccc13)CC2)C1CCCN(Cc2ccccn2)C1 (stereo not shown),-42.5%
11,CCOc1ccc(-n2c(N)c(-c3nc4ccccc4n3C)c3nc4ccccc4nc32)cc1,-7.84%
12,CCOc1ccc(C(=O)NCCCN2CCCC2=O)cc1,-8.47%
13,CC1(C)NC(=O)N(CCCSc2ccc(Cl)cc2)C1=O,-7.93%
14,OCC[C@H]1C[C@H](O)[C@@H](O)[C@]2(Cc3ccccc3CO2)O1,13%
15,Cc1nnc(SCC(=O)NC(=O)NC(C)(C)C)s1,17.9%
16,CCOP(=O)(c1ccc(N(C)C)cc1)C(O)c1ccc(C)cc1 (stereo not shown),14.7%
17,N#CCSc1nnc(COc2ccc3ccccc3c2)o1,-5.89%
18,CCOc1ccc(C(=S)N2CCCC2)cc1,-7.78%
19,COc1ccc(C(=O)NNC(=O)c2ccc(C(C)(C)C)cc2)cc1,4.1%
20,COc1ccc(CN(CC(=O)NCc2ccco2)C(=O)CCC(=O)Nc2ccccn2)cc1,-3.13%
21,COc1ccc(N2CCOCC2)c(NC(=O)c2ccc(Br)o2)c1,7.74%
22,CSc1nc2ccc(S(=O)(=O)NC3CCCCC3)cc2s1,-5.97%

row,Compound,"hERG current change (%, negative = inhibition) at 10uM"
1,Cc1cc(C(=O)N/N=C/c2cccc([N+](=O)[O-])c2)c(C)n1-c1ccccc1,8.8%
2,C/C(Nc1ccc(F)cc1)=C(/C#N)C(N)=O,14%
3,C=CCN1C=C2C(=O)C(C)(OC(=O)C3CCCC3)C(=O)C=C2C=C1c1ccsc1 (stereo not shown),-19.4%
4,CN(C)Cc1c(C#N)c2ccccc2n1C,-11.7%
5,O=C(NC1CCCCC1)n1c(=O)oc2ccc(Cl)cc21,16.6%
6,Cc1sc(NC(=O)c2ccc(OCC(C)C)cc2)c(C(N)=O)c1-c1ccc(Cl)cc1Cl,4.28%
7,COc1ccc(NC(=O)COC(=O)c2cc(=O)c3ccccc3o2)cc1OC,-4.11%
8,CC(=O)Nc1cccc(C(=O)Nc2ccc(S(=O)(=O)N3CCCCC3)cc2)c1,-10.3%
9,CS(=O)(=O)c1ccc(C(=O)NCc2ccccc2F)cc1,6.24%
10,Cc1ccc(NS(=O)(=O)c2c(C(=O)N3CCCCCC3)c(C)n(C)c2C)cc1C,-18%
11,O=C1NC2(CCCCCC2)C(=O)N1Cc1ccccc1F,3.24%
12,O=C1c2ccccc2C(=O)N1CCc1nc(-c2ccc(Cl)cc2)no1,-6.18%
13,CC(=O)COC(=O)CNC(=O)c1ccc(Br)cc1,-0.971%
14,Cc1cc(C(=O)NC(C)C2CCCO2)no1 (stereo not shown),15.7%
15,O=C(Cn1nnc(-c2ccccc2Cl)n1)N/N=C/c1ccc2c(c1)OCO2,6.19%
16,CC1(c2ccncc2)Nc2ccccc2-c2nc3ccccc3n21 (stereo not shown),-22.1%
17,Cc1cc(NC(=O)c2ccc3c(c2)C(=O)N(C(C)(C)C)C3=O)no1,32.3%
18,Cc1ccc(/C=c2\sc3n(c2=O)CN(c2ccc(Br)cc2)CN=3)o1,6.1%
19,CCOc1cnc(-c2c(-c3c(Cl)cccc3Cl)noc2C)o1,5.73%
20,COc1ccccc1N1CCN(C(=O)c2ccc(S(=O)(=O)N3CCCCCC3)cc2)CC1,-39.8%
21,COc1ccc(-c2nnn(CC(=O)N(CCO)C(C(=O)NC3CCCC3)c3ccc(F)cc3)n2)cc1 (stereo not shown),6.68%
22,Cc1ccc(NC(=O)C2CCN(S(=O)(=O)c3cnc[nH]3)CC2)cc1C,-2.42%
